Some of the results follow.
What was measured:
Experiment in all cases: glycan array binding signal (z-score within array); higher = stronger binding
Conditions in all cases: glycan notation: IUPAC condensed, linker removed
[1] = target: Fuc(a1-2)Gal(b1-4)GlcNAc6S
How it was run: (§1)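 Negative Z-scores can be read as non-binding. The Z-score is calculated within each array and then averaged across arrays of one protein sequence at different concentrations or buffers and across linkers. Arrays, 3228 in all, were curated from the Consortium for Functional Glycomics database and kept only where the protein sequence was available.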

[2] = target: Fuc(a1-2)Gal(b1-4)[Fuc(a1-3)]GalNAc(b1-3)Gal(b1-4)[Fuc(a1-3)]GlcNAc
How it was run: as §1

[3] = target: Fuc(a1-2)Gal(b1-4)[Fuc(a1-3)]GalNAc(b1-3)Gal(b1-4)[Fuc(a1-3)]GlcNAc(b1-3)Gal(b1-4)[Fuc(a1-3)]GalNAc
How it was run: as §1

[4] = target: Fuc(a1-2)Gal(b1-4)[Fuc(a1-3)]GlcNAc
How it was run: as §1

[5] = target: Fuc(a1-2)Gal(b1-4)[Fuc(a1-3)]GlcNAc(b1-2)Man(a1-3)[Fuc(a1-2)Gal(b1-4)[Fuc(a1-3)]GlcNAc(b1-2)Man(a1-6)]Man(b1-4)GlcNAc(b1-4)[Fuc(a1-6)]GlcNAc
How it was run: as §1

[6] = target: Fuc(a1-2)Gal(b1-4)[Fuc(a1-3)]GlcNAc(b1-2)[Fuc(a1-2)Gal(b1-4)[Fuc(a1-3)]GlcNAc(b1-4)]Man(a1-3)[Fuc(a1-2)Gal(b1-4)[Fuc(a1-3)]GlcNAc(b1-2)Man(a1-6)]Man(b1-4)GlcNAc(b1-4)GlcNAc
How it was run: as §1

[7] = target: Fuc(a1-2)Gal(b1-4)[Fuc(a1-3)]GlcNAc(b1-3)Gal(b1-4)[Fuc(a1-3)]GlcNAc
How it was run: as §1

[8] = target: Fuc(a1-2)Gal(b1-4)[Fuc(a1-3)]GlcNAc(b1-3)Gal(b1-4)[Fuc(a1-3)]GlcNAc(b1-3)Gal(b1-4)[Fuc(a1-3)]GlcNAc
How it was run: as §1

[9] = target: Fuc(a1-2)Gal(b1-4)[Fuc(a1-3)]GlcNAc(b1-3)GalNAc
How it was run: as §1

[10] = target: Fuc(a1-2)Gal(b1-4)[Fuc(a1-3)]GlcNAc(b1-3)[Neu5Ac(a2-6)Gal(b1-4)GlcNAc(b1-6)]Gal(b1-4)Glc
How it was run: as §1

[11] = target: Fuc(a1-2)Gal3S(b1-4)GlcNAc
How it was run: as §1

[12] = target: Fuc(a1-2)Gal6S(b1-3)GlcNAc
How it was run: as §1

[13] = target: Fuc(a1-2)Gal6S(b1-3)GlcNAc6S
How it was run: as §1

Fuc(a1-2)Gal6S(b1-4)Glc = target: Fuc(a1-2)Gal6S(b1-4)Glc
How it was run: as §1

[14] = target: Fuc(a1-2)Gal6S(b1-4)Glc6S
How it was run: as §1

[15] = target: Fuc(a1-2)Gal6S(b1-4)GlcNAc
How it was run: as §1

Fuc(a1-2)GlcNAc = target: Fuc(a1-2)GlcNAc
How it was run: as §1

Fuc(a1-2)[Gal(a1-3)]Gal = target: Fuc(a1-2)[Gal(a1-3)]Gal
How it was run: as §1

[16] = target: Fuc(a1-2)[Gal(a1-3)]Gal(b1-3)GalNAc
How it was run: as §1

[17] = target: Fuc(a1-2)[Gal(a1-3)]Gal(b1-3)GalNAc(b1-3)Gal(a1-4)Gal(b1-4)Glc
How it was run: as §1

[18] = target: Fuc(a1-2)[Gal(a1-3)]Gal(b1-3)GlcNAc
How it was run: as §1

[19] = target: Fuc(a1-2)[Gal(a1-3)]Gal(b1-3)GlcNAc(b1-2)Man(a1-3)[Fuc(a1-2)[Gal(a1-3)]Gal(b1-3)GlcNAc(b1-2)Man(a1-6)]Man(b1-4)GlcNAc(b1-4)GlcNAc
How it was run: as §1

[20] = target: Fuc(a1-2)[Gal(a1-3)]Gal(b1-3)GlcNAc(b1-2)Man(a1-3)[Fuc(a1-2)[Gal(a1-3)]Gal(b1-3)GlcNAc(b1-2)Man(a1-6)]Man(b1-4)GlcNAc(b1-4)[Fuc(a1-6)]GlcNAc
How it was run: as §1

[21] = target: Fuc(a1-2)[Gal(a1-3)]Gal(b1-3)GlcNAc(b1-3)GalNAc
How it was run: as §1

[22] = target: Fuc(a1-2)[Gal(a1-3)]Gal(b1-3)GlcNAc(b1-6)GalNAc
How it was run: as §1

[23] = target: Fuc(a1-2)[Gal(a1-3)]Gal(b1-4)Glc
How it was run: as §1

[24] = target: Fuc(a1-2)[Gal(a1-3)]Gal(b1-4)GlcNAc
How it was run: as §1

[25] = target: Fuc(a1-2)[Gal(a1-3)]Gal(b1-4)GlcNAc(b1-2)Man
How it was run: as §1

[26] = target: Fuc(a1-2)[Gal(a1-3)]Gal(b1-4)GlcNAc(b1-2)Man(a1-3)[Fuc(a1-2)[Gal(a1-3)]Gal(b1-4)GlcNAc(b1-2)Man(a1-6)]Man(b1-4)GlcNAc(b1-4)GlcNAc
How it was run: as §1

[27] = target: Fuc(a1-2)[Gal(a1-3)]Gal(b1-4)GlcNAc(b1-2)Man(a1-3)[Fuc(a1-2)[Gal(a1-3)]Gal(b1-4)GlcNAc(b1-2)Man(a1-6)]Man(b1-4)GlcNAc(b1-4)[Fuc(a1-6)]GlcNAc
How it was run: as §1

[28] = target: Fuc(a1-2)[Gal(a1-3)]Gal(b1-4)GlcNAc(b1-3)GalNAc
How it was run: as §1

[29] = target: Fuc(a1-2)[Gal(a1-3)]Gal(b1-4)GlcNAc(b1-3)[Fuc(a1-2)[Gal(a1-3)]Gal(b1-4)GlcNAc(b1-6)]GalNAc
How it was run: as §1

[30] = target: Fuc(a1-2)[Gal(a1-3)]Gal(b1-4)GlcNAc(b1-6)GalNAc
How it was run: as §1

[31] = target: Fuc(a1-2)[Gal(a1-3)]Gal(b1-4)[Fuc(a1-3)]Glc
How it was run: as §1

[32] = target: Fuc(a1-2)[Gal(a1-3)]Gal(b1-4)[Fuc(a1-3)]GlcNAc
How it was run: as §1

[33] = target: Fuc(a1-2)[Gal(a1-3)]Gal(b1-4)[Fuc(a1-3)]GlcNAc(b1-3)GalNAc
How it was run: as §1

[34] = target: Fuc(a1-2)[Gal(a1-4)]Gal(b1-4)GalNAc
How it was run: as §1

[35] = target: Fuc(a1-2)[Gal(a1-4)]Gal(b1-4)GlcNAc
How it was run: as §1

B1: MGL1 (Mus musculus), P49300 (protein)
chain: MIYENLQNSRIEEKTQEPGKAPSQSFLWRILSWTHLLLFSLGLSLLLLVVVSVIGSQNSQLRRDLGTLRATLDNTTSKIKAEFQSLDSRADSFEKGISSLKVDVEDHRQELQAGRDLSQKVTSLESTVEKREQALKTDLSDLTDHVQQLRKDLKALTCQLANLKNNGSEVACCPLHWTEHEGSCYWFSESEKSWPEADKYCRLENSHLVVVNSLEEQNFLQNRLANVVSWIGLTDQNGPWRWVDGTDFEKGFKNWAPLQPDNWFGHGLGGGEDCAHITTGGPWNDDVCQRTFRWICEMKLAKES
Question: What does the source list for B1?
Answer: glycan array binding signal (z-score) [1]: -0.01; glycan array binding signal (z-score) [2]: -0.115; glycan array binding signal (z-score) [3]: -0.14; glycan array binding signal (z-score) [4]: -0.346; glycan array binding signal (z-score) [5]: 0.133; glycan array binding signal (z-score) [6]: 0.824; glycan array binding signal (z-score) [7]: -0.019; glycan array binding signal (z-score) [8]: -0.371; glycan array binding signal (z-score) [9]: -0.16; glycan array binding signal (z-score) [10]: -0.672; glycan array binding signal (z-score) [11]: 0.516; glycan array binding signal (z-score) [12]: -0.41; glycan array binding signal (z-score) [13]: -0.688; glycan array binding signal (z-score) (Fuc(a1-2)Gal6S(b1-4)Glc): -0.288; glycan array binding signal (z-score) [14]: 0.081; glycan array binding signal (z-score) [15]: -0.143; glycan array binding signal (z-score) (Fuc(a1-2)GlcNAc): -0.156; glycan array binding signal (z-score) (Fuc(a1-2)[Gal(a1-3)]Gal): 0.307; glycan array binding signal (z-score) [16]: -0.265; glycan array binding signal (z-score) [17]: -0.015; glycan array binding signal (z-score) [18]: 0.446; glycan array binding signal (z-score) [19]: -0.706; glycan array binding signal (z-score) [20]: -0.411; glycan array binding signal (z-score) [21]: -0.593; glycan array binding signal (z-score) [22]: -0.297; glycan array binding signal (z-score) [23]: -0.017; glycan array binding signal (z-score) [24]: -0.021; glycan array binding signal (z-score) [25]: -0.708; glycan array binding signal (z-score) [26]: -0.615; glycan array binding signal (z-score) [27]: -1.16; glycan array binding signal (z-score) [28]: -0.521; glycan array binding signal (z-score) [29]: -0.466; glycan array binding signal (z-score) [30]: -0.784; glycan array binding signal (z-score) [31]: -0.824; glycan array binding signal (z-score) [32]: -0.593; glycan array binding signal (z-score) [33]: -0.761; glycan array binding signal (z-score) [34]: -0.134; glycan array binding signal (z-score) [35]: 1.45

From the supplement of paper PMC8728848
